# Results published in PubChem BioAssay AID686979 (National Center for Advancing Translational Sciences (NCATS), 2013).
# Among all 420,000 compounds or so, about 50,000 (12%) were called active. The inconclusive results got no clear call from the source; some entries with a clear call stand among them for comparison. The call rests on the fitted dose curve; in most records, active means well fitted inhibition curve with a large enough effect; inconclusive means small, poorly fitted or top-dose-only effect; inactive means flat fitted curve, though single readings scatter. No potency is given beside an inconclusive call; the fits are too rough.
# Assay: qHTS for Inhibitors of human tyrosyl-DNA phosphodiesterase 1 (TDP1): qHTS in cells in presence of CPT; further: nearly all actives have a fitted effect of over 55% in size
# Settings: chicken DT40 Tdp1-/-;hTDP1 cells + 20 nM CPT, ATP luminescence, 48 h; activity change, negative = growth inhibition: at 46.2 µM (top of the series)
# In short: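 Cell growth measured by CellTiter-Glo luminescence after a minimum 48 h, 37 C compound exposure with 20 nM CPT in Tdp1-knockout DT40 cells stably expressing hTDP1, seeded 400/well; qHTS titration format.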
# On the % scale 0 is the no-effect control and ±100 the full control effect; potency means the concentration at half of the fitted maximal effect; tags describe the fitted curve by direction and shape.
SMILES,Potency,"activity change, negative = growth inhibition"
CN1CCN(c2ncc3nc(-c4cccc(C#N)c4)c(=O)n(CCc4ccccc4)c3n2)CC1,"inconclusive [inhibitor, single point]",–
COc1ccc(-c2cn3c(C)c(C(=O)Nc4ccncc4)sc3n2)cc1,active: 3.66 µM,–
Cc1cccc(NC(=O)c2oc3c(c2C)C(=O)CC(C)(C)C3)n1,active: 11.6 µM,–
CC(=O)Nc1cccc(C(=O)OCC(=O)N2CCC(c3ccccc3)=N2)c1,–,inactive: -9.8%
COc1ccc(CNC(=O)Nc2nc(C(N)c3ccccc3)cs2)cc1 (configuration not stated),"inconclusive [inhibitor, single point]",–
CCCc1cc(=O)oc2cc(OCC(=O)NCCc3c[nH]c4ccccc34)ccc12,active: 23.1 µM,–
CCS(=O)(=O)n1nc(-c2ccccc2)nc1SC,–,inactive: -4.32%
CCOc1ccc(NC(=O)CSc2oc(-c3ccco3)nc2S(=O)(=O)c2ccccc2)cc1,"inconclusive [inhibitor, single point]",–
O=C(COC(=O)c1ccc2ccccc2c1O)NCC(F)(F)F,–,inactive: -21.2%
O=C(c1ccc(CSc2nc3ccncc3[nH]2)cc1)N1CCCCCC1,"inconclusive [inhibitor, single point]",–
O=C(NN=C1C2CC3CC1CC(Cl)(C3)C2)c1ccccn1,–,inactive: -0.205%
Cc1ccc(CSc2nnc([C@@H]3CCCN3C(=O)OC(C)(C)C)o2)cc1,"inconclusive [inhibitor, single point]",–
CC(C)CN(C(=O)COC(=O)c1cnc(Cl)c(Cl)c1)c1c(N)n(Cc2ccccc2)c(=O)[nH]c1=O,–,inactive: -23.6%
Cc1cccc(-c2cc(C(=O)N/N=C/c3cccnc3)c3ccccc3n2)c1,"inconclusive [inhibitor, full curve]",–
CN1CCN(c2ccc(NC(=O)c3cc(S(N)(=O)=O)ccc3N3CCOCC3)cc2)CC1,–,inactive: 9.82%
CCCCCCn1cc(C(=O)O)c(=O)c2cc(F)c(N3CCCCC3)cc21,–,inconclusive: -32.6% [inhibitor]
COc1cc2c(cc1OC)C(=O)OC2,–,inactive: 1.06%
COc1ccc(S(=O)(=O)N2CCCC2CNC(=O)C(=O)NCc2ccccc2)cc1 (configuration not stated),"inconclusive [inhibitor, single point]",–
c1ccc(-c2nnc(-c3ccncc3)nc2-c2ccccc2)cc1,–,inactive: 4.3%
CCOC(=O)c1ccc(NC(=O)C2CCCN(S(=O)(=O)c3ccc(F)cc3)C2)cc1 (configuration not stated),"inconclusive [inhibitor, single point]",–
O=S(=O)(c1ccccc1)c1nc(-c2ccc(F)cc2)oc1NCc1ccccc1,–,inactive: -19.3%
CC(C)c1ccc(S(=O)(=O)N2CCN(C(=O)n3ccnc3)CC2)cc1,"inconclusive [inhibitor, single point]",–
CCOC(=O)C1(CCOc2ccccc2)CCN(Cc2ccc(-n3cccn3)cc2)CC1,"inconclusive [inhibitor, single point]",–
CCOC(=O)c1cccc(NC(=O)CSc2ncc3c(n2)-c2ccc(Cl)cc2N(Cc2ccccc2)S3(=O)=O)c1,"inconclusive [inhibitor, single point]",–

SMILES,Potency,"activity change, negative = growth inhibition"
COc1ccccc1CNC(=O)CCS(=O)(=O)c1ccc2c(c1)oc(=O)n2C,–,inactive: -18.2%
CNC(=O)Nc1ccc2nc(C)oc2c1,–,inactive: -9.29%
CCn1c(C)nc2cc(C(=O)NNC(=O)Nc3ccc(Cl)cc3)ccc21,–,inactive: -1.27%
Cc1c(-c2nsc(NC(=O)c3cccs3)n2)nnn1-c1ccc(F)cc1,"inconclusive [inhibitor, single point]",–
Oc1ccc(-c2csc(Nc3ccccn3)n2)c(O)c1,"inconclusive [inhibitor, single point]",–
COc1ccc(NS(=O)(=O)c2ccc3c(c2)CCC(=O)N3)cc1O,"inconclusive [inhibitor, single point]",–
CC(=O)c1cccc(CN2CCC(CO)(CCCc3ccccc3)CC2)c1,"inconclusive [inhibitor, single point]",–
CCOCCn1c(N2CCN(c3ccc(OC)cc3)CC2)nc2c1c(=O)n(C)c(=O)n2C,"inconclusive [inhibitor, single point]",–
O=C(CN1CCOCC1)Nc1nc(-c2ccc3c(c2)CCN3S(=O)(=O)c2ccccc2)cs1,"inconclusive [inhibitor, single point]",–
Cc1ccc(S(=O)(=O)Nc2cc(Cl)c3oc4c(c3c2)CCCC4)cc1,"inconclusive [inhibitor, single point]",–
COc1ccc(N2CCN(C(=O)c3cc(=O)[nH]c4ccccc34)CC2)cc1,–,inactive: 5.34%
O=C(CC1C(=O)CCCC1=O)c1ccccc1,active: 13 µM,–
CCC1(c2ccccc2)NC(=O)N(CC(=O)Nc2cc(Cl)ccc2N2CCN(C)CC2)C1=O (configuration not stated),"inconclusive [inhibitor, single point]",–
O=C1CCCCc2cc(O)c(O)cc21,"inconclusive [inhibitor, single point]",–
O=C(Nc1cccc(F)c1)C1CC(=O)N(c2ccc(Cl)cc2)C1 (configuration not stated),–,inconclusive: -30.5% [inhibitor]
O=C(c1cc(COc2ccc(F)cc2Cl)on1)N1CCN(C2CCCC2)CC1,active: 18.4 µM,–
NC(CSC(c1ccccc1)(c1ccccc1)c1ccccc1)C(=O)O (configuration not stated),active: 5.8 µM,–
O=c1c2ccccc2c(C=Nc2ccccc2O)c(O)n1-c1nccs1,–,inactive: -29.4%
O=C(NCCc1ccccc1)c1ccc(-c2ccc(F)c(F)c2)c2ccoc12,active: 16.4 µM,–
CC[C@]12c3[nH]c4cc(-c5ccco5)ccc4c3CCN1C(=O)[C@@H](CC(=O)NCc1ccco1)C[C@@H]2C(=O)N1CCN(C(=O)c2ccco2)CC1,"inconclusive [inhibitor, single point]",–
CC(=O)Nc1nc(Cn2nnc(-c3ccc4c(c3)OCO4)n2)nc(N(C)C)n1,–,inactive: 2.2%
CCOC(=O)c1oc2c(c1C)-c1nn(Cc3cccc(Cl)c3)cc1CC2,"inconclusive [inhibitor, single point]",–
CCN(CC(=O)NCc1cccs1)C(=O)c1cccc(S(=O)(=O)N(CC)c2ccccc2)c1,"inconclusive [inhibitor, single point]",–
